Assay results published in PubChem BioAssay (Tox21).
“And” between values parts separate entries of the source, which are not always exact repeats. Equal values may be shown once. The inconclusive results got no clear call from the source; some entries with a clear call stand among them for comparison. Potencies beside an inconclusive call are fits to weak or partial responses and may not hold up. The source made the active and inactive calls. The call rests on the fitted dose curve; in most records, active means well fitted inhibition curve with a large enough effect in the repeat runs; inconclusive means weak or mixed curves; inactive means flat fitted curve, though single readings scatter.

molecular target: Luciferin 4-monooxygenase (Photinus pyralis) (UniProt P08659); test: qHTS assay to identify small molecule inhibitors of firefly luciferase (AID 1224835); further: nearly all actives have a fitted effect of over 25% in size; settings: purified P. pyralis luciferase, luminescence inhibition; series mostly up to 115 µM; activity change, negative = inhibition: at the top concentration
Sequence of UniProt P08659 (P08659 whole entry, looked up): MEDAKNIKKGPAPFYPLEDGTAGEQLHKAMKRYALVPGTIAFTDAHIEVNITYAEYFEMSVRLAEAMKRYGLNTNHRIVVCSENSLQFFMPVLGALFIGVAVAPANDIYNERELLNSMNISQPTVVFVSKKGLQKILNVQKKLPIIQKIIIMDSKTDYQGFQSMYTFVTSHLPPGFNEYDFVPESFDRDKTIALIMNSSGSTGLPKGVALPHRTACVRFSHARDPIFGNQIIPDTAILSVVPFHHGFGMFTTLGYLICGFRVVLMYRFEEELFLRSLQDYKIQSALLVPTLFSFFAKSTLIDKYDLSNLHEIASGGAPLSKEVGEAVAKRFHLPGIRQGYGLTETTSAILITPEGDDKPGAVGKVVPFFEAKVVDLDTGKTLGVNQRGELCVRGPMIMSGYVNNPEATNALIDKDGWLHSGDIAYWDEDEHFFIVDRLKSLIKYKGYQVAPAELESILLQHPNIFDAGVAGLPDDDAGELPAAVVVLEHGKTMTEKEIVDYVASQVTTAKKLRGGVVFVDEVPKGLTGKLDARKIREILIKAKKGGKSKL
Procedure, shortened: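 Inhibition of purified Photinus luciferase is measured by luminescence. Substrate levels (D-luciferin, ATP) sit at their KM values. Each compound is tested in a concentration series.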
On the % scale 0 is the no-effect control and ±100 the full control effect; potency means the concentration at half of the fitted maximal effect; tags describe the fitted curve by direction and shape.

Structure (SMILES) | Potency | activity change, negative = inhibition
COc1ccc(N)cc1N | inconclusive: 43 µM [inhibitor, partial curve] | 
Nc1nc(=S)[nH][nH]1 |  | inactive: -10.2%
C=CCOC(=O)c1ccccc1N | inconclusive: 31.9 µM [inhibitor, full curve] | 
NC(=S)Nc1ccccc1 | inconclusive: 90.9 µM [inhibitor, single point] | 
COP(=S)(OC)Oc1cc(Cl)c(Br)cc1Cl | inconclusive: 63.3 µM [inhibitor, partial curve] | 
CCCCCCCCCCCCCC[P+](CCCCCC)(CCCCCC)CCCCCC (tested in a mixture with another compound) | inconclusive: 89.4 µM [inhibitor, single point] | 
C#C[C@]1(O)CC[C@H]2[C@@H]3CCC4=CC(=O)CC[C@]4(C)[C@H]3CC[C@@]21C | inactive | 
Fc1ccc(Oc2ccnc3cc(Cl)cc(Cl)c23)cc1 | active: 35.6 µM | 
CC1COC(Cn2cncn2)(c2ccc(Oc3ccc(Cl)cc3)cc2Cl)O1 (stereo unspecified) |  | inactive: -4.38%
O=c1oc2ccccc2c(O)c1Cc1c(O)c2ccccc2oc1=O | inconclusive: 34.7 µM [inhibitor, partial curve] | 
Nc1ccc([N+](=O)[O-])cc1N | active: 79.6 µM and inconclusive: 89.4 µM [inhibitor, single point] | 
Cc1cc(Cl)ccc1OCC(=O)O | inconclusive: 89.4 µM [inhibitor, partial curve, poor fit] | 
CC(COc1ccc(Oc2ccccc2)cc1)Oc1ccccn1 (stereo unspecified) | inconclusive: 35.6 µM [inhibitor, partial curve] | 
O=C=Nc1ccc(Cl)cc1 | active: 5.64 µM | 
COC(=O)Nc1nc2ccccc2[nH]1 | inconclusive: 63.3 µM [inhibitor, partial curve] | 
CN(C)c1ccc(N=Nc2ccccc2)cc1 | active: 0.252 µM | 
S=C=Nc1ccccc1 | inconclusive: 65.3 µM [inhibitor, partial curve] | 
c1ccc(N=Nc2ccccc2)cc1 | active: 18.2 µM and active: 22.4 µM | 
NNc1ccccc1 | inconclusive: 70.2 µM [inhibitor, partial curve] and inconclusive: 63.2 µM [inhibitor, partial curve] and inconclusive: 39.9 µM [inhibitor, partial curve] | 
N#CC(Br)Br | inconclusive: 88.8 µM [inhibitor, single point] | 
CCCCCCCCCCCCCCCC[n+]1ccccc1 | inconclusive: 93.5 µM [inhibitor, partial curve, poor fit] | 
Cc1ccc(N)cc1 | inconclusive: 80.2 µM [inhibitor, single point] and inconclusive: 63.3 µM [inhibitor, partial curve] | 
C[C@@H](N)[C@@H](O)c1ccccc1 |  | inactive: 5.32% [at 52.9 µM]
CCCCNC(=O)OCC#CI | inconclusive: 63 µM [inhibitor, partial curve] | 
c1ccc2c(c1)sc1ccccc12 | inconclusive: 38.9 µM [inhibitor, partial curve] | 
CON(C)C(=O)Nc1ccc(Cl)c(Cl)c1 | inconclusive: 63.6 µM [inhibitor, partial curve] and inconclusive: 39.9 µM [inhibitor, partial curve] | 
